# Experimental data published in PubChem BioAssay AID686979 (National Center for Advancing Translational Sciences (NCATS), 2013).
# Hit rate of the full screen: of about 420,000 compounds, about 50,000 (12%) were called active. The inconclusive results got no clear call from the source; some entries with a clear call stand among them for comparison. The call rests on the fitted dose curve; in most records, active means well fitted inhibition curve with a large enough effect; inconclusive means small, poorly fitted or top-dose-only effect; inactive means flat fitted curve, though single readings scatter. Potencies of inconclusive entries are left out as doubtful fits.
# Experiment: qHTS for Inhibitors of human tyrosyl-DNA phosphodiesterase 1 (TDP1): qHTS in cells in presence of CPT; further: nearly all actives have a fitted effect of over 55% in size
# Settings: chicken DT40 Tdp1-/-;hTDP1 cells + 20 nM CPT, ATP luminescence, 48 h; series mostly up to 46.2 µM
# Summary of the method: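 Cell growth measured by CellTiter-Glo luminescence after a minimum 48 h, 37 C compound exposure with 20 nM CPT in Tdp1-knockout DT40 cells stably expressing hTDP1, seeded 400/well; qHTS titration format.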
# Potency means the concentration at half of the fitted maximal effect; tags describe the fitted curve by direction and shape.
row,Compound,Potency
1,COc1cc(S(=O)(=O)N2CCN(c3ccccc3)CC2)ccc1F,"inconclusive [inhibitor, single point]"
2,CNC(=O)CSc1cn(CC(=O)N(C(C)C)C(C)C)c2ccccc12,inactive
3,CCCNc1nc2c(c(=O)n(C)c(=O)n2C)n1CCCc1ccccc1,active: 13 µM
4,O=C(Cc1cccs1)Nc1nnc(SCc2ccc(C(F)(F)F)cc2)s1,active: 14.6 µM
5,Cc1ccc(NC(=O)N2CCc3ccccc3C2)c(C)c1,inactive
6,Cc1c(CN2CCC(CO)(Cc3cccc(C(F)(F)F)c3)CC2)c2ccccc2n1C,active: 23.1 µM
7,Nc1ncncc1-c1ccc([N+](=O)[O-])cc1,active: 16.4 µM
8,C=CCNC(=S)/N=c1/scc(C)n1C,inactive
9,O=C1C=CC(=O)N1c1ccccn1,"inconclusive [inhibitor, single point]"
10,Cc1cccc(NC(=O)COC(=O)CN2C(=O)c3ccccc3C2=O)c1C,inactive
11,COc1ccc(NC(=O)CSc2oc(-c3ccco3)nc2S(=O)(=O)c2ccccc2)c(OC)c1,"inconclusive [inhibitor, partial curve, poor fit]"
12,O=C(Nc1ccc(Cl)cc1)c1cc(S(=O)(=O)NC2CCCCCC2)ccc1F,"inconclusive [inhibitor, single point]"
13,CCc1ccc(/C=N/NC(=O)c2nnn(-c3nonc3N)c2C(C)C)cc1,"inconclusive [inhibitor, single point]"
14,Cc1nc2ccc([N+](=O)[O-])cc2c(=O)n1Cc1ccc(F)cc1,"inconclusive [inhibitor, single point]"
15,CCc1ccc(S(=O)(=O)c2nnn3c2nc(NCc2ccccc2)c2cc(Cl)ccc23)cc1,"inconclusive [inhibitor, single point]"
16,CN(CC(=O)Nc1cccc(F)c1)C(=O)c1ccc(COc2ccccc2)cc1,"inconclusive [inhibitor, single point]"
17,CC(NC(=O)CCNC(=O)c1ccc(C(C)(C)C)cc1)c1ccccc1 (stereo not given),"inconclusive [inhibitor, single point]"
18,COc1ccc(-c2nnn(CC(=O)N(CC(=O)NCCC(C)C)Cc3cccs3)n2)cc1OC,"inconclusive [inhibitor, partial curve]"
19,CC(C)Oc1ccc(F)cc1-c1cc(C(=O)NCc2cc(C(F)(F)F)cc(C(F)(F)F)c2)[nH]n1,active: 18.4 µM
20,Cc1nnsc1NC(=O)OCc1ccc(C(F)(F)F)cc1,"inconclusive [inhibitor, single point]"
